Screen size: about 310,000 compounds; about 2,200 (0.71%) showed an effect of 50% or more. The effect is printed as a negative number. This is one part of the list.
These compounds were tested against human ether-à-go-go-related gene (hERG) potassium channel (human, UniProt Q12809) (assay: primary screen, population patch clamp on CHO cells stably expressing hERG).
Sequence of human ether-à-go-go-related gene (hERG) potassium channel (Q12809 whole entry, looked up): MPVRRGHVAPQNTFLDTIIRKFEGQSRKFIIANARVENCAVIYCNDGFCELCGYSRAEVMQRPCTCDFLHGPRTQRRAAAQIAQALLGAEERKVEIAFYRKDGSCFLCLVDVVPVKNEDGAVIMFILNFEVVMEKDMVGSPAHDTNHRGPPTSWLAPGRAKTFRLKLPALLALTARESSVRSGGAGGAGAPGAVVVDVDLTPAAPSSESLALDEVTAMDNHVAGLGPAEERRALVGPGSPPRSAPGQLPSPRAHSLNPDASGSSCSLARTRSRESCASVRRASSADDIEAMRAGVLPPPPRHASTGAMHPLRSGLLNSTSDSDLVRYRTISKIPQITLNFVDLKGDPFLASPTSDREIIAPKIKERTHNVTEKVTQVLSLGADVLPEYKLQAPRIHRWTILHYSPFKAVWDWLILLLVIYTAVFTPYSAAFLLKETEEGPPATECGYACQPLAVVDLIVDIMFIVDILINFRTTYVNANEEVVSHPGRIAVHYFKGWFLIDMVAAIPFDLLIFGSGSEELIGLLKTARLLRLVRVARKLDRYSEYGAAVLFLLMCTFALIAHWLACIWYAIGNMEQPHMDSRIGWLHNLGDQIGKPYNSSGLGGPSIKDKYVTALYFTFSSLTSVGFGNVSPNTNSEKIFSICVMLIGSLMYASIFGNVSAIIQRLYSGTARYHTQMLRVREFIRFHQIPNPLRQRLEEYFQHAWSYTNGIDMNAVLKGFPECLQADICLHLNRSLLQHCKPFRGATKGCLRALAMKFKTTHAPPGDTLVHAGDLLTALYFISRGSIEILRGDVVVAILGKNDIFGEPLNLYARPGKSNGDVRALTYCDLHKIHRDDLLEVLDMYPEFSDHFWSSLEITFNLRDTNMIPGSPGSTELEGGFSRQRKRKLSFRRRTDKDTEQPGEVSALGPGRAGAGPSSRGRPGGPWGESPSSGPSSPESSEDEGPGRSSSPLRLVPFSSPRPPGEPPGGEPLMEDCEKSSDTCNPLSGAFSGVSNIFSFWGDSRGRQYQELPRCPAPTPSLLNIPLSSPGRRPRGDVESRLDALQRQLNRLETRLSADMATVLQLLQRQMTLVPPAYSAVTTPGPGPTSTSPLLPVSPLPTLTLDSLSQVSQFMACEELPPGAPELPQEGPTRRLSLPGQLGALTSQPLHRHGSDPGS

Compared with `NC(=O)C1CC(=O)N(c2ccc(OCC(=O)Nc3ccc(F)cc3)cc2)C1` (centres unmarked), `COc1ccc(N2C(=O)CCC(C(=O)O)C2c2ccc(F)cc2)cc1` (centres unmarked) is higher in “hERG current change (%, negative = inhibition) at 1uM” value: 6.18% for the first, 20.1% for the second.

Going from `CC1CN(CC(=O)c2c(N)n(Cc3ccccc3)c(=O)n(C)c2=O)CC(C)O1` (centres unmarked) to `COc1ccccc1/C=C/C(=O)OCC(=O)c1c(N)n(C)c(=O)n(C)c1=O`, the “hERG current change (%, negative = inhibition) at 1uM” value rises from 4.3% to 5.86%.

First: CC(=O)Oc1ccc(-c2cccc(C(=O)NCCCO)c2)cc1
Second: COc1ccc(CCCC(=O)Nc2cc(C)ccc2OC)cc1
The “hERG current change (%, negative = inhibition) at 1uM” value of the first is higher: 8.54% for the first, 8.36% for the second.

Going from `Cc1ccc(S(=O)(=O)/N=C(/c2ccc(F)cc2)N2CCCCC2)cc1` to `Cn1c(=O)oc2cc(S(=O)(=O)N3CCCCC3)ccc21`, the “hERG current change (%, negative = inhibition) at 1uM” value rises from 1.25% to 12.6%.

Going from `CCCN1C(=O)c2cc(C(=O)NC3CCCCCC3)ccc2C1O` (centres unmarked) to `COc1ccc(N(CC(=O)NC2CCCCC2)C(=O)c2ccc(C)s2)c(OC)c1`, the “hERG current change (%, negative = inhibition) at 1uM” value rises from 9.82% to 12.7%.

Going from `COc1cc(NC(=O)c2cccs2)c(OC)cc1NC(=O)Cc1ccccc1` to `COC(=O)C(Cc1ccccc1)NC(=O)CNC(=O)c1sc2ccccc2c1Cl` (centres unmarked), the “hERG current change (%, negative = inhibition) at 1uM” value rises from 9.29% to 12.6%.

Compared with `CN(C)S(=O)(=O)Oc1ccsc1C(=O)Nc1ccc(Cl)cc1`, `CCOC(=O)c1c(C)nn(-c2ccc(NC(=O)c3cccs3)cc2)c1C` is higher in “hERG current change (%, negative = inhibition) at 1uM” value: 10.5% for the first, 14.5% for the second.

Going from `CCOc1ccc(CCNC(=O)COC(=O)c2c(C)nn(-c3ccccc3)c2C)cc1OCC` to `CCN(CC)CCNC(=O)C(C)c1nn(CC)c(=O)c2ccccc12.Cl` (centres unmarked), the “hERG current change (%, negative = inhibition) at 1uM” value rises from 3.56% to 8.85%.

Going from `CCC(=O)c1ccc(N2CCN(C(=O)c3cccc(F)c3)CC2)c(F)c1` to `O=C(NCCS(=O)(=O)N1CCN(c2ccccc2F)CC1)c1ccc(Cl)cc1`, the “hERG current change (%, negative = inhibition) at 1uM” value falls from -15% to -21.8%.

Compared with `CC1(C)C(c2ccccc2)=NC(c2ccc(F)cc2)N1O` (centres unmarked), `CC(=O)C1=C(O)C(=O)N(Cc2cccnc2)C1c1ccccc1` (centres unmarked) is higher in “hERG current change (%, negative = inhibition) at 1uM” value: 5.23% for the first, 10.8% for the second.

First: CC(C)CC(=O)Nc1c2c(nn1-c1ccc(F)cc1)CS(=O)C2 (centres unmarked)
Second: CCOC(=O)NC(NC(=O)OCC)C(=O)c1ccc(F)cc1
The “hERG current change (%, negative = inhibition) at 1uM” value of the first is higher: 16.1% for the first, 4.86% for the second.

First: O=C(NCc1ccccc1)c1ccc(NC(=O)c2ccccc2F)cc1
Second: O=C(Nc1cccnc1)c1ccc(CN2CCc3ccccc3C2)cc1
The “hERG current change (%, negative = inhibition) at 1uM” value of the first is higher: 17.2% for the first, 8.06% for the second.

Going from `CCOC(=O)c1c(CN2CCCCC2)oc2ccc(O)cc12.Cl` to `CCOC(=O)C1=C(O)C(=O)N(Cc2ccccc2)CC1`, the “hERG current change (%, negative = inhibition) at 1uM” value rises from -24.7% to 10.1%.

Going from `CC(=O)c1ccc(NC(=O)CN2CCOCC2)cc1.Cl` to `CCOc1ccc(NC(=S)N2CCC(N(C)CCN3CCOCC3)CC2)cc1`, the “hERG current change (%, negative = inhibition) at 1uM” value falls from 13.2% to 12.4%.

Going from `N/C(=N\OC(=O)c1ccc(Cl)cc1Cl)c1ccc(Cl)cc1` to `O=C(O)CN1C(=O)c2cccc(Oc3ccc(Cl)cc3)c2C1=O`, the “hERG current change (%, negative = inhibition) at 1uM” value falls from 12.9% to 11.3%.

Compared with `CN1CCN(c2ccc(CNS(=O)(=O)c3ccc(F)cc3Cl)cc2)CC1`, `CC(C)c1ccc(S(=O)(=O)N2CCN(C(=O)Cc3ccsc3)CC2)cc1` is higher in “hERG current change (%, negative = inhibition) at 1uM” value: 1.07% for the first, 15.3% for the second.

Compared with `Cc1cc(N)n(-c2ncnc3scc(-c4ccccc4)c23)n1`, `Cc1cc(C)n(-c2ccc(C(=O)C(C#N)c3nc4ccccc4n3C)cc2)n1` (centres unmarked) is higher in “hERG current change (%, negative = inhibition) at 1uM” value: -3.3% for the first, 10.2% for the second.

Compared with `O=S(=O)(NCC1CCCO1)c1cnc(Cl)c(Br)c1` (centres unmarked), `Cc1cc(Cl)ccc1C(=O)C1CCCN(C(=O)c2nonc2C)C1` (centres unmarked) is lower in “hERG current change (%, negative = inhibition) at 1uM” value: 10.9% for the first, 7.64% for the second.

Going from `N#Cc1ccc2[nH]cc(CCO)c2c1` to `COc1ccccc1NCCC#N`, the “hERG current change (%, negative = inhibition) at 1uM” value falls from 21.1% to 12%.

Going from `Cc1nc2c(-c3ccc(F)cc3)c(C)nn2c(C)c1CCC(=O)N1CCN(c2ccccn2)CC1` to `COc1ccc(N2CCN(Cc3nc4c(c(=O)[nH]c(=O)n4C)n3CCCc3ccccc3)CC2)cc1`, the “hERG current change (%, negative = inhibition) at 1uM” value falls from -9.95% to -34.7%.

Going from `COC(=O)c1sc(NC(=O)c2csc3c2CCCC3)nc1C` to `COC(=O)C1CCN(CC(=O)Nc2sc3c(c2C#N)CCC3)CC1`, the “hERG current change (%, negative = inhibition) at 1uM” value rises from -3.04% to -0.0934%.

Compared with `CC1(C)CC(=O)C2=C(C1)OC(N)=C(C#N)C2Cc1ccccc1` (centres unmarked), `COc1cccc(C2C(C#N)=C(C)NC3=C2C(=O)CC(C)(C)C3)c1` (centres unmarked) is higher in “hERG current change (%, negative = inhibition) at 1uM” value: -0.943% for the first, 3.23% for the second.

First: COc1cccc(-c2nn[nH]n2)c1O
Second: COc1ccccc1N1CCN(C2=Nc3cccc4cccc2c34)CC1
The “hERG current change (%, negative = inhibition) at 1uM” value of the first is higher: 6.45% for the first, -21.1% for the second.

Going from `COc1ccc(-c2sc3cc4c(cc3c2C#CCO)OCO4)cc1` to `COc1ccc2oc(=N)c(C(=O)Nc3cccc(C)c3C)cc2c1`, the “hERG current change (%, negative = inhibition) at 1uM” value falls from 17.1% to 16.7%.

Compared with `S=c1[nH]nc(-c2ccco2)n1-c1ccc(Cl)cc1`, `CCOC(=O)c1ccc(-n2c(=S)sc3c(=O)[nH]c(C)nc32)cc1` is lower in “hERG current change (%, negative = inhibition) at 1uM” value: 4.22% for the first, 1.63% for the second.

Going from `COC(=O)c1sccc1NC(=O)c1c(Cl)cnn1C` to `CC(C)Oc1cccc(C(=O)NC2=NCCS2)c1`, the “hERG current change (%, negative = inhibition) at 1uM” value rises from -8.49% to 5.37%.

Compared with `C#CCCC(=O)c1ccccc1/C=[N+](\[O-])c1ccccc1`, `COc1ccc([N+](=O)[O-])cc1NCc1ccccc1.O=C(O)C(=O)O` is lower in “hERG current change (%, negative = inhibition) at 1uM” value: 9.72% for the first, 4.39% for the second.

Compared with `CC(=O)Nc1ccc(NC(=S)NC(=O)c2ccc([N+](=O)[O-])c(C)c2)cc1`, `C/C(=N\NC(=O)c1ccc(NS(=O)(=O)c2cccs2)cc1)c1ccc2c(c1)OCO2` is higher in “hERG current change (%, negative = inhibition) at 1uM” value: 7% for the first, 9.38% for the second.

First: Cc1ccccc1N1C(=O)CC(N2CCN(C(=O)c3ccco3)CC2)C1=O (centres unmarked)
Second: Cn1c(=O)c2c(ncn2CC(=O)N2CCN(C(=O)c3ccco3)CC2)n(C)c1=O
The “hERG current change (%, negative = inhibition) at 1uM” value of the first is higher: 12.3% for the first, 4.86% for the second.

First: COc1cc(O)c(C(CCN2CCCC(C)C2)c2ccc(N(C)C)cc2)c(OC)c1 (centres unmarked)
Second: COc1ccc(CC(=O)NCC2CCCN(Cc3ccccc3Cl)C2)cc1 (centres unmarked)
The “hERG current change (%, negative = inhibition) at 1uM” value of the first is lower: -9.72% for the first, 19.2% for the second.

Compared with `O=C(CNC(=S)N(CCCN1CCOCC1)Cc1cccs1)NC1CC1`, `O=C(CCC(=O)N(CC(=O)NC1CCCC1)c1ccc(F)cc1)Nc1nccs1` is higher in “hERG current change (%, negative = inhibition) at 1uM” value: 12.6% for the first, 15.3% for the second.

Going from `CCOC(=O)N1CCc2c(sc(NC(=O)c3ccc(S(=O)(=O)N4CCCC4)cc3)c2C#N)C1` to `CN(C)CCCN(C(=O)c1ccc(S(=O)(=O)N2CCCCCC2)cc1)c1nc2cc3c(cc2s1)OCCO3.Cl`, the “hERG current change (%, negative = inhibition) at 1uM” value falls from 19.2% to -10.1%.

Going from `CC(Cc1ccsc1)NC(=O)CCc1nnc(COc2ccccc2)o1` (centres unmarked) to `CCCC(C)NC(=O)Cc1ccccc1` (centres unmarked), the “hERG current change (%, negative = inhibition) at 1uM” value falls from 11.4% to -2.94%.

First: CSc1nc(NCC(C)C)nc(N2CCOCC2)n1
Second: Cn1c(SCC(=O)Nc2ccc(N3CCOCC3)cc2)nnc1-c1ccccc1
The “hERG current change (%, negative = inhibition) at 1uM” value of the first is lower: -2.7% for the first, 5.03% for the second.

Compared with `Cc1ccc(C2=C/C(=C/c3cccs3)C(=O)O2)cc1`, `C=C1c2cc(C)ccc2NC(=O)N1c1ccccc1` is lower in “hERG current change (%, negative = inhibition) at 1uM” value: 1.48% for the first, 1.15% for the second.

Compared with `NC(=O)CC(NC(=O)c1ccccc1)c1ccc(N2CCCCCC2)c([N+](=O)[O-])c1` (centres unmarked), `O=C(NCc1ccco1)c1ccc2c(c1)S(=O)(=O)c1ccccc1C2=O` is higher in “hERG current change (%, negative = inhibition) at 1uM” value: -3.96% for the first, 5.46% for the second.

Compared with `COC(=O)CCC[C@H]1CC2(C[C@H](CCCO[Si](C)(C)C(C)(C)C)N1C(=O)OC(C)(C)C)OCCO2`, `CCCNC(=S)NC1CC2CCCC(C1)N2CC(C)C.Cl` (centres unmarked) is higher in “hERG current change (%, negative = inhibition) at 1uM” value: 4.33% for the first, 14.9% for the second.

Going from `Cc1c(Br)c([N+](=O)[O-])nn1CC(=O)NCc1ccccn1` to `O=C(Cc1cn2ccsc2n1)Nc1cccc2cnccc12`, the “hERG current change (%, negative = inhibition) at 1uM” value falls from 18.8% to 12.2%.

Compared with `O=C(Nc1cccc(Cl)c1)c1cc(N=Nc2ccc([N+](=O)[O-])cc2Cl)ccc1O`, `O=C(Nc1ccc2oc(-c3ccccc3F)nc2c1)c1cncc(Br)c1` is lower in “hERG current change (%, negative = inhibition) at 1uM” value: 18.4% for the first, 2.12% for the second.

First: COc1cccc(N/N=C(\C#N)S(=O)(=O)C(C)(C)C)c1
Second: COC(=O)/C(=C/Nc1ccccc1)[N+](=O)[O-]
The “hERG current change (%, negative = inhibition) at 1uM” value of the first is higher: 21.8% for the first, 4.03% for the second.

First: COc1cc(/C=N/NC(=O)CCn2cnc(-c3ccccc3)c2-c2ccccc2)ccc1O
Second: COc1ccc(NC(=O)C(Sc2nnc(-c3ccncc3)n2-c2ccccc2C)c2ccccc2)cc1Cl (centres unmarked)
The “hERG current change (%, negative = inhibition) at 1uM” value of the first is higher: 9.24% for the first, -2.79% for the second.

Compared with `COc1ccc(S(=O)(=O)N(CC(=O)N2CCN(C)CC2)C2CCCCC2)cc1OC`, `CN1C(=O)C2(OCCCO2)c2cc(Cl)ccc21` is higher in “hERG current change (%, negative = inhibition) at 1uM” value: 6.98% for the first, 16.1% for the second.

Going from `O=C(CCn1c(=O)[nH]c2ccsc2c1=O)N1CC(=O)N(CCc2ccccc2)C(=O)C1` to `Cc1ccc(-n2c(O)c(/C=N/c3ncn[nH]3)c3ccccc3c2=O)cc1`, the “hERG current change (%, negative = inhibition) at 1uM” value rises from 4.97% to 13.8%.

Compared with `Cc1nc(C(F)(F)F)c(C(=O)NC(=O)Nc2ccc(OC(F)(F)F)cc2)s1`, `CCCC(=O)NC(C)c1nc(-c2ccc(C)cc2)no1` (centres unmarked) is higher in “hERG current change (%, negative = inhibition) at 1uM” value: -0.0309% for the first, 9.81% for the second.

For `COC(=O)C(C)Oc1ccc(=O)[nH]n1` (centres unmarked), the “hERG current change (%, negative = inhibition) at 1uM” value was 6.9%.

— publication PMC4336329 (PLoS ONE, 2015)
